# Reference: paper PMC4336329 (PLoS ONE, 2015)
# Out of some 310,000 compounds screened, about 2,200 (0.71%) showed an effect of 50% or more. The effect is printed as a negative number. This is one part of the list.
# Target: human ether-à-go-go-related gene (hERG) potassium channel (human, UniProt Q12809)
# Test: primary screen, population patch clamp on CHO cells stably expressing hERG
# human ether-à-go-go-related gene (hERG) potassium channel, sequence (Q12809 whole entry, looked up): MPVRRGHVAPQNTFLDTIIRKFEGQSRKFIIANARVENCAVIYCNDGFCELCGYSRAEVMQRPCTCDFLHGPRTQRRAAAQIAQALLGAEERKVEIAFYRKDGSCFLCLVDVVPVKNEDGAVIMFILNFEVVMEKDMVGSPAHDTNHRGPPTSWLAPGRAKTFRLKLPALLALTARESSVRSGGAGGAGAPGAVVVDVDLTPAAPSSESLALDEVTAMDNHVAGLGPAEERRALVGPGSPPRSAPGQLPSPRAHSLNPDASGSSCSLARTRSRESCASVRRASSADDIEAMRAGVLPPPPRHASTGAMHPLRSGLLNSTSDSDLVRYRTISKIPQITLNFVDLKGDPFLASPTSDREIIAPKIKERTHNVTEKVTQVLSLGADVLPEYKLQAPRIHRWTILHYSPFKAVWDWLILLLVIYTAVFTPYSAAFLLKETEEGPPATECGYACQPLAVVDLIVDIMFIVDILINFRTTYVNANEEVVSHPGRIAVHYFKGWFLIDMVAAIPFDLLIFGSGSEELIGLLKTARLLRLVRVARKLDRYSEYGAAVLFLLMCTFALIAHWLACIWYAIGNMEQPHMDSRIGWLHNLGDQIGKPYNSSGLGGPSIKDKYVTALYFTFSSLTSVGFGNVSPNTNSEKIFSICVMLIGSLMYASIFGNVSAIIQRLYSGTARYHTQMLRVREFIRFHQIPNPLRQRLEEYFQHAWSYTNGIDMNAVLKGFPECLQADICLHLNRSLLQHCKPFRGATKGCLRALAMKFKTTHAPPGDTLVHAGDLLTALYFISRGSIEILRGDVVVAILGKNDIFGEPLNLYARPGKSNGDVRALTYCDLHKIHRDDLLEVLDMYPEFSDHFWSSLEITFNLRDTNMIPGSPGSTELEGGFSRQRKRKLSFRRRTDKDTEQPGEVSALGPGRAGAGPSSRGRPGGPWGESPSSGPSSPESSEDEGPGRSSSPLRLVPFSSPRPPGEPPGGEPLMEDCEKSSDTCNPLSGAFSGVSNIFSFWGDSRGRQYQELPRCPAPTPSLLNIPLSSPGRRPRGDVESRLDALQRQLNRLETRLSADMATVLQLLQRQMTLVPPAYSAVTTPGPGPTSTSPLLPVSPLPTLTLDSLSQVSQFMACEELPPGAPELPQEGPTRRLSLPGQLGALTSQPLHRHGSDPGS
row,SMILES,"hERG current change (%, negative = inhibition) at 1uM [%]"
1,O=C1/C(=C\c2ccc(O)c(O)c2)N=C2CCCCCN12,7.57
2,CCOc1cc(C2CC(=O)NC3=C2C(=O)C(C(=O)OC)C(C)C3)cc(Cl)c1O (stereo not drawn),14.4
3,Cc1ccc(S(=O)(=O)N(C)c2ccc(C(=O)NCC3CCCO3)cc2)cc1 (stereo not drawn),-0.0194
4,CCCCCC(=O)Nc1cc(S(=O)(=O)N2CCOCC2)ccc1N1CCN(C)CC1,2.5
5,O=C(CN(C(=O)C1CSC(=O)C1)c1cccc(F)c1)NC1CCCC1 (stereo not drawn),12.4
6,CCC(C(=O)OCC(=O)NC(=O)NC(C)(C)C)c1ccccc1 (stereo not drawn),17.2
7,N#CCc1c(C#N)c(N)nc(N2CCN(Cc3ccc4c(c3)OCO4)CC2)c1C#N,-6.91
8,CCOC(=O)c1cc2nc(-c3ccccc3)cc(C)n2n1,11.2
9,CCOC(=O)COc1coc(CN2CCN(c3ccc(F)cc3)CC2)cc1=O,7.03
10,O=C(CSc1nc2c(c(=O)n1-c1ccc(Cl)cc1)SCC2)Nc1nccs1,5.38
11,Cc1ccc(-n2c(SCC(=O)O)nc3sc4c(c3c2=O)C(C)CCC4)cc1 (stereo not drawn),1.63
12,CCOc1cccc(-c2nc3c(s2)CCc2onc(-c4cccc([N+](=O)[O-])c4)c2-3)c1,7.47
13,Cc1cc(C)c2c(N)c(C(=O)c3ccccc3Cl)sc2n1,15.3
14,CCOC(=O)c1ccc(NC(=O)CSc2nnc(-c3ccncc3)n2C)cc1,1.65
15,CCOC(=O)CSc1nc2c(sc(=S)n2Cc2ccco2)c(=O)n1-c1ccc(F)cc1,-0.523
16,CC1CCc2cc(F)ccc2N1S(=O)(=O)c1ccc(F)cc1 (stereo not drawn),12.4
17,O=C(CN1CCC(n2nnc3cc(F)ccc32)CC1)NC1CCCCC1,-4.68
18,Cc1ccc(Nc2nc(-c3ccc(F)cc3)cs2)nc1,13.4
19,C/C(=N/NC(=O)CNC(=O)c1ccco1)c1ccco1,8.94

row,SMILES,"hERG current change (%, negative = inhibition) at 1uM [%]"
1,Nc1nccnc1C(=O)OCC(=O)Nc1ccc2[nH]c(=O)[nH]c2c1,8.54
2,COCC(=O)NC1CCN(S(=O)(=O)c2ccc(C(=O)O)cc2)CC1,17.4
3,CC(=O)Nc1ccc(NC(=O)C2CCCN2C(=O)Nc2ccccc2[N+](=O)[O-])cc1 (stereo not drawn),8.66
4,COc1ccc(OCC(O)CNC(=O)c2ccccc2)cc1 (stereo not drawn),10.3
5,C=CCC1CCCC(=O)N2CC[C@H](O)C12 (stereo partly drawn),10.6
6,Cc1cc(C(=O)OCC(=O)Nc2cccc(S(=O)(=O)N(C)C)c2)c(C)o1,11.9
7,Nc1cccnc1Oc1ccccc1F,10.6
8,CCOC(=O)c1cnc(N2CCN(C(=O)OCC)CC2)[nH]c1=O,13.9
9,CCSC1=NC(C)(C)C=C(C)N1,3.22
10,COCCN(CCOC)C(=S)Nc1ccccc1Cl,7.43
11,CC(=O)Nc1sc2c(c1C(N)=O)CCC2,12.8
12,O=C(C1CCN(C2CC(=O)N(Cc3ccccc3)C2=O)CC1)N1CCCCCC1 (stereo not drawn),-6.73
13,O=C(NCc1ccccc1Cl)C1CCCN(S(=O)(=O)c2cccc3nonc23)C1 (stereo not drawn),14.6
14,CC(=O)Nc1ccc(NC(=O)CSC2=NS(=O)(=O)c3cc(F)ccc3N2)cc1,14.7
15,COc1ccc(S(=O)(=O)N2CCOCC2)cc1NC(=O)CSc1nnc(C2CC2)n1C1CC1,5.21
16,NC(=O)C1CCN(C(=O)c2ccc3c(=O)n(Cc4ccco4)c(SCC(=O)c4ccccc4)nc3c2)CC1,-1.31
17,CCCCn1c(SCC(=O)NC2CCCC2)nnc1-c1ccco1,-1.09
18,COC(=O)Cc1c(C)c2ccc(OCC(=O)N(C)C)cc2oc1=O,6.75
19,CCCCOc1ccccc1C1CC(=O)NC2=C1C(=O)CCC2 (stereo not drawn),-0.56

row,SMILES,"hERG current change (%, negative = inhibition) at 1uM [%]"
1,CCOC(=O)c1c(C)n(CC)c2c1cc(O)c1ccccc12,5.15
2,CCN(Cc1ccccc1)C(=O)COC(=O)CNS(=O)(=O)c1ccc(C)cc1,8.41
3,Cc1cccc(N2C(=O)C(Cl)=C(N3CCOCC3)C2=O)c1,15.4
4,COc1nc(OC)nc(N2CCC(C(=O)NCc3ccco3)CC2)n1,-0.721
5,Cc1ccccc1-n1c(SCC(=O)N/N=C/c2c(C)nn(-c3ccccc3)c2C)nc2ccccc2c1=O,2.3
6,CCOC(=O)N1C(=O)[C@](c2ccc(Cl)cc2)(C(C)C)N1C(=O)OCC,7.37
7,O=C(CN(C(=O)c1ccco1)c1cccc(F)c1)NCc1ccc(F)cc1,8.77
8,COc1ccc2nc(SCC(=O)Nc3nonc3C)[nH]c2c1,12.1
9,CCOC(=O)c1[nH]c2ccc(F)cc2c1NC(=O)Nc1ccccc1OC,9.61
10,CCOc1cc2c(cc1OCC)-n1cccc1C(c1ccccc1O)NC2.Cl (stereo not drawn),10.2
11,O=C(Nc1ccccc1N1CCOCC1)c1ccc2c(c1)C(=O)N(Cc1ccncc1)C2=O,-23.8
12,CCOC(=O)c1ccc(N2C(=O)C(C)=C(C)C2=O)cc1,13.2
13,CCC(=O)N1CCc2cc(Br)cc(S(=O)(=O)N3CCC(C(=O)NC(C)(C)C)CC3)c21,-1.52
14,Cc1ccc(OCC(=O)N2CCc3ccccc32)c([N+](=O)[O-])n1,2.49
15,Cc1ccc(NC(=O)CN2CC(C)SC2=NC2CCCCC2)cc1.Cl (stereo not drawn),1.84
16,Fc1ccccc1N1CCN(Cc2ccc3c(c2)OCO3)CC1,-2.65
17,CSCC[C@H](NC(=O)Nc1cccc(C(F)(F)F)c1)C(=O)O,9.72
18,Cc1ccc(SC[C@H](C)CN2CC[C@H](C)CCC2=O)cc1,11.3
19,COc1ccc(S(=O)(=O)Nc2c(NC3CCCCC3)c3ccccc3oc2=O)cc1Cl,13.8
